Data: the supplement of paper PMC11181314
The list shows a part of the results. Single values of this set are uncertain.

Tested on: U2OS
Experiment: Cell Painting induction (percent of morphological features significantly changed vs DMSO); higher = stronger morphological change
Conditions: 10 µM, 20 h
Experimental: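 Cell Painting assay in U2OS cells: compounds at 10 µM for 20 h, six dyes, 579 robust CellProfiler features as Z-scores vs DMSO median (MAD). Induction is the % of significantly changed features (active if ≥5%); relative cell count is in % of DMSO. The primary run holds DCM compounds preselected for induction ≥10%; the confirmation repeat defines active compounds (370 of 549). Replicate agreement is low, attributed to precipitation.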

[1] = run: primary screen (compounds selected for induction >=10%)
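Further: stains mark DNA, RNA and nucleoli, ER, actin, Golgi, plasma membrane and mitochondria, read by high-content imaging, with DMSO controls at matching solvent concentration.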

| Structure (SMILES) | Cell Painting induction (run: confirmation repeat) | Cell Painting induction [1] [%] |
| --- | --- | --- |
| CCCCN(C)CCN1C(=O)[C@@H]2C(C(=O)Nc3ccc(OC)cc3)[C@@H]3C=C[C@]2(O3)C1C(=O)NC1CCCCC1 (some centres undefined) | active: 46.3% | 28.3 |
| CCOC(=O)c1c(CN2CCOCC2)n(-c2ccccc2)c2cc(Br)c(O)c(CN(C)C)c12 | active: 11.4% | 18.1 |
| COc1cc(OC)c(OC)cc1CN1CCC(N2CCN(c3ccccc3)CC2)CC1 | active: 18.3% | 24.7 |
| CCCN(CCC)CCCNC(=O)CNC(=O)c1nn(-c2ccc(OC)cc2)c(=O)c2ccccc12 | inactive: 3.3% | 13.3 |
| COc1ccc(C(=O)NC(=S)N2CCN(c3ccccc3OC)CC2)cc1 | active: 6% | 11.7 |
| CN(CCCNC(=O)c1nn(C)c2c1CS(=O)(=O)c1ccccc1-2)Cc1ccccc1 | inactive: 2.2% | 13 |
| CC(C)c1ccc(S(=O)(=O)c2nnn3c2nc(N2CCCCC2)c2ccccc23)cc1 | inactive: 2.2% | 10.5 |
| CSc1cccc(NC(=S)N(CCC(C)C)C(C)c2ccncc2)c1 (centres undefined) | inactive: 1.6% | 10.5 |
| Cc1ccc(N(CC(=O)NCCSc2ccccn2)S(=O)(=O)c2ccc(F)cc2)cc1 | inactive: 1.7% | 13 |
| COc1ccc(C)cc1NC(=O)c1nnn(Cc2cccc(F)c2)c1N | active: 25.9% | 22.3 |
| O=C(Nc1ccc(NC(=S)NC(=O)c2cccs2)cc1)c1ccccc1 | active: 35.6% | 54.7 |
| CCN(CC)CCCNC(=O)c1cc2nc(-c3ccccc3)cc(C(F)(F)F)n2n1 | inactive: 0.2% | 18.7 |
| COc1ccc(NC(=O)CCc2nc(-c3ccc(C)cc3)no2)cc1Cl | active: 28.8% | 29.4 |
| C=CCn1c(SCC(=O)N2CCC(C)CC2)nc2c3ccccc3nc-2c1O | active: 7.1% | 12.6 |
| CN(C(=O)c1ccc2c(=O)n3c(nc2c1)CCCCC3)c1ccccc1Cl | active: 15.9% | 21.1 |
| CCOc1cc2c(cc1OCC)C(c1ccc(C(F)(F)F)cc1)CC(=O)N2 (centres undefined) | active: 11.2% | 13.5 |
| Cc1ccc(-c2nn3c(C)nnc3s2)cc1NC(=O)c1ccc(OC(C)C)cc1 | active: 7.9% | 22.8 |
| CCCCSCCCNC(=O)c1ccc(CNS(=O)(=O)c2ccc(F)cc2)cc1 | active: 43.2% | 38.2 |
| CC(C)CC(=O)N1c2ccccc2N=C2CC(C)(C)CC(O)=C2C1c1ccc(N(C)C)cc1 (centres undefined) | active: 13.3% | 10.7 |
| COCCOC(=O)C1=C(C)Nc2nc3ccccc3n2C1c1cc(F)cc(F)c1 (centres undefined) | active: 7.8% | 41.8 |
| COc1cc(CNCCCN2CCOCC2)cc(Cl)c1OCC(=O)NC(C)(C)C | active: 25.4% | 19.7 |
| O=C(NC1CCCCCC1)c1cc(-c2ccccn2)nc2ccccc12 | inactive: 0% | 16.9 |
| N=c1c(C(=O)NCc2ccc3c(c2)OCO3)cc2c(=O)n3ccccc3nc2n1CC1CCCO1 (centres undefined) | active: 5.5% | 11.6 |
| COc1ccc(N(CC(O)Cn2c(C)nc3ccccc32)S(=O)(=O)c2ccc(C)cc2)cc1 (centres undefined) | active: 6.7% | 20.9 |
| COC(=O)c1c(NC(=O)c2c(OC)cccc2OC)sc2c1C(C(=O)OC)CC2 (centres undefined) | inactive: 4.5% | 15.4 |
| CCCOc1ccc(/C=C/C(=O)Nc2ccc(C(C)=O)cc2)cc1OC | active: 10.4% | 14.2 |

| Structure (SMILES) | Cell Painting induction (run: confirmation repeat) | Cell Painting induction [1] [%] |
| --- | --- | --- |
| Cc1ccc(Nc2nc3c(S(=O)(=O)c4ccc(C(C)(C)C)cc4)nnn3c3ccccc23)cc1C | inactive: 0% | 17.8 |
| CC1CCN(CCCn2c(SCC(=O)NC3CCCC3)nc3ccccc3c2=O)CC1 | active: 12.6% | 16.9 |
| COc1ccc(NC(=O)C2Cc3cc(S(=O)(=O)N4CCCCC4)ccc3N2C(C)=O)cc1Cl (centres undefined) | active: 13.3% | 15.2 |
| COc1ccc(NC(=O)C2CCN(c3ncnc4c3nc3n4CCCCC3)CC2)cc1Cl | active: 29.2% | 14.2 |
| COc1ccccc1N1CCN(C(=O)c2sc3ncn(CC(=O)N4CCC(C)CC4)c(=O)c3c2C)CC1 | active: 25.6% | 23 |
| Cc1ccc(C)c(Cn2nc3c4ccccc4n(Cc4ccccc4)cc-3c2=O)c1 | inactive: 0.9% | 21.4 |
| O=C(C1CCCN(S(=O)(=O)c2ccc(Br)s2)C1)N1CCN(c2ccccc2)CC1 (centres undefined) | inactive: 4.5% | 11.2 |
| Cc1ccc2c(c1)ncc1c(-c3ccccc3)nn(-c3cccc(F)c3)c12 | inactive: 0.2% | 49.6 |
| CC(NC(=O)c1cn(C)c2ccc(S(=O)(=O)N3CCCC3)cc2c1=O)c1ccccc1 (centres undefined) | inactive: 1.4% | 13.5 |
| Cc1ccc(NC(=O)CSc2nc3ccccc3nc2N2CCOCC2)c(C)c1 | active: 8.8% | 19.9 |
| Cc1ccccc1NC(=O)c1cn2c(nc3ccccc32)c(C#N)c1C | active: 36.1% | 42.7 |
| Cc1ccc(-c2nc(S(=O)(=O)c3ccccc3)c(SCC(=O)NCC3CCCO3)o2)cc1 (centres undefined) | active: 12.6% | 29.9 |
| O=c1c2ccccc2nc(CSc2nnnn2-c2ccccc2)n1-c1cccc(C(F)(F)F)c1 | inactive: 0.7% | 13.8 |
| Fc1ccccc1/C=C1\CCCC2=C1Nc1nnnn1C2c1ccccc1F (centres undefined) | active: 29.7% | 11.2 |
| COc1ccc(C)cc1NC(=O)CSc1nc2ccccc2nc1N1CCCCC1 | active: 9.2% | 13 |
| CNC(=S)N1CCc2cc(OC)c(OC)cc2C1COc1ccc(F)cc1 (centres undefined) | active: 15.9% | 14.7 |
| Cc1cc(-c2ccc(C)c(S(=O)(=O)NCCCN(Cc3ccccc3)C(C)C)c2)on1 | active: 50.3% | 36.1 |
| COc1ccc(/C=N/NC(=O)c2c(C)nc3ccc(Br)cn23)cc1OC | inactive: 1.9% | 50.3 |
| COc1ccc(O)c(/C=N/NC(=O)CCC(=O)Nc2cccc(C)c2)c1 | active: 18.8% | 15.9 |
| COc1ccccc1NC(=O)CSc1nc2ccccc2c(=O)n1CC1CCCO1 (centres undefined) | inactive: 2.1% | 10.4 |
| COc1ccccc1NC(=O)COc1ccc(-c2nn(C)c(=O)c3ccccc23)cc1 | inactive: 0.2% | 10.2 |
| Cc1cccc(C)c1NC(=O)C1(N(Cc2ccco2)C(=O)Cn2nnnc2N)CCCCC1 | active: 15% | 19.3 |
| COc1ccccc1C(=O)Nc1ccc2c(c1)nc(CN1CCCCC1)n2C | active: 5.4% | 11.7 |
| CCOc1ccccc1N(C)C(=O)Cn1ncc2c3cc(C)ccc3nc-2c1O | active: 50.3% | 58.9 |
| CN1CCN(CCCNC(=O)c2ccc(Cn3c(=S)[nH]c4ccc(Br)cc4c3=O)cc2)CC1 | active: 28.5% | 33.2 |
| O=C(NCCCN1CCOCC1)c1ccc2c(=O)n(Cc3ccc(Cl)cc3)c(=S)[nH]c2c1 | active: 52.3% | 57.5 |

| Structure (SMILES) | Cell Painting induction (run: confirmation repeat) | Cell Painting induction [1] [%] |
| --- | --- | --- |
| CCOc1cccc(C(=O)Nc2ccc3oc(-c4cccnc4)nc3c2)c1 | active: 71.3% | 59.6 |
| CCN(CC)CCCNC(=O)C(C)Sc1nc(-c2ccccc2)cc(C(F)(F)F)n1 (centres undefined) | active: 31.1% | 46.3 |
| CC(NC(=O)c1ccc2c(c1)OCO2)C(c1cccs1)N1CCN(c2ccccc2)CC1 (centres undefined) | active: 6% | 23.5 |
| c1ccc(Nc2nc(NCCN3CCOCC3)nc(Nc3ccccc3)n2)cc1 | active: 24.4% | 44 |
| COc1cccc(NC(=O)CSc2nc3ccccc3nc2N2CCOCC2)c1 | active: 26.1% | 14.3 |
| CCOc1ccc(C(=O)Cc2cc3cccc(OC)c3oc2=O)cc1 | inactive: 4.8% | 11.4 |
| O=C(CCCCn1c(=O)c2ccccc2n(Cc2ccc(Cl)cc2)c1=O)NCc1ccco1 | active: 43.9% | 59.6 |
| COc1cc(Nc2nc3c(S(=O)(=O)c4ccc(C)cc4)nnn3c3ccccc23)cc(OC)c1OC | active: 19.2% | 30.9 |
| COc1ccccc1NC(=O)c1cc2c(CO)cnc(C)c2o/c1=N\c1cc(OC)c(OC)c(OC)c1 | inactive: 2.9% | 15 |
| Cc1noc(C)c1S(=O)(=O)N(CC(=O)N1CCc2ccccc21)c1ccc(C(C)C)cc1 | active: 9.3% | 13.1 |
| Cc1nn2c(N3CCOCC3)cc(C(C)C)nc2c1-c1ccccc1 | inactive: 0% | 24.4 |
| CCN(Cc1ccccc1)S(=O)(=O)c1ccc(S(=O)(=O)N2CCN(CCC#N)CC2)cc1 | inactive: 0% | 15.7 |
| CCOc1ccc(N(CC(=O)N2CCN(c3ccccc3F)CC2)S(=O)(=O)c2c(C)noc2C)cc1 | active: 8.3% | 12.8 |
| COc1ccc(CNC(=O)OCc2nccnc2C(=O)Nc2ccc(Br)cn2)cc1 | active: 35.9% | 53 |
| CC1CCN(c2c(NCc3ccc(C(=O)NCCc4ccc(Cl)cc4)cc3)c(=O)c2=O)CC1 | active: 14.7% | 27.1 |
| CCNC(=S)N(CCc1c(C)[nH]c2ccc(C)cc12)Cc1cccnc1 | active: 18% | 12.8 |
| O=C(Nc1ccc(NC(=S)NC(=O)c2ccco2)cc1)c1ccccc1 | active: 16.2% | 34 |
| CCOC(=O)C1(C)C=C(Nc2ccc(OCC)cc2)C(=O)N1c1ccccc1 (centres undefined) | active: 11.6% | 11.6 |
| CCOc1ccc(NC(=O)CSc2nc3cc(C(=O)NCC4CCCO4)ccc3c(=O)n2CC2CCCO2)cc1 (centres undefined) | inactive: 2.4% | 10.4 |
| COc1ccc(-c2cn3c(C)c(C(=O)N4CCN(c5ccc(F)cc5)CC4)sc3n2)cc1 | inactive: 0% | 27.3 |
| CCCn1c2ccc(F)cc2c2nnc(SCCN3CCOCC3)nc21 | active: 5% | 19.5 |
| COc1ccc(-n2nc(C(=O)NCC(=O)NC3CCCCC3)c3ccccc3c2=O)cc1 | active: 29.9% | 21.2 |
| COc1ccc(S(=O)(=O)N(CC(=O)NC(C(C)C)C(C)C)c2ccc(C)cc2)cc1OC | active: 5.2% | 11.6 |
| Cc1ccc(-c2cc(C(F)F)n3ncc(C(=O)N4CCN(c5ccc(F)cc5)CC4)c3n2)cc1 | active: 16.4% | 35.2 |
| CC(C)(C)c1cc(N2CCOCC2)n2ncc(-c3ccc(Cl)cc3)c2n1 | active: 5.9% | 24.9 |
